The chains are these.
B1: CPEB3 Ribozyme (parent)
chain: UAACAGGGGGCCACAGCAGAAGCGUUCACGUCGCAGCCCCUGUCAGAUUCUGGUGAAUCUGCGAAUUCUGCUGUAUAUCUC

167 variants from the RNAGym collection of RNA variant scans (doi:10.1093/nar/gkz1192) can be followed below.

Read counts are not given, so values of variants with three or more changes are uncertain.

In this series the parent is B1. Kind of series: self-cleavage, relative activity (ratio to wild type); higher = more cleavage; in vitro, sequencing. A digest of the protocol: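 After error-prone PCR and barcoding, CPEB3 ribozyme mutant libraries were transcribed with T7 RNA polymerase at 37°C for 5 hours, then given 15 min with DNase I before an EDTA stop, and they cleaved during both steps. Reverse transcription with template switching preceded Illumina sequencing. Relative activity divides a variant's cleaved/total read fraction by the unmutated ribozyme's. At least 5 reads were required per variant, and three batches were averaged.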
On to C27U U51A U80A, for which the self-cleavage was found to be 0.56.
As for A28G G52A U58A U67A, the figure is 0.13.
In the case of A28G U43A G52U it was 1.01; in that of A28C U41C G46A U48G, 0.19; in that of A28G U49C U76A, 0.1.
In the case of A28G U41A A47G, the self-cleavage was determined as 0.15.
In the case of A28G A64U A77U it was 0.1.
As for A28G G30A G53A, the figure is 0.1; as for A28G U31C U72C, 0.5; as for A28G U72C U74C, 0.77.
Turning to A28G A45U U60C A64U, the self-cleavage was found to be 0.12.
As for A28G U31C G42U, the figure is 0.12.
In the case of A28G A65G U69C U72A, the self-cleavage is 0.12.
As for A28G U31A A64G U69C U74C, the figure is 0.11; as for A28G A35G C59G, 0.23; as for A28G A35G C59A, 0.25.
In the case of A28G U48C U69C it was 0.2.
In the case of A28G U48C U69A it was 0.2; in that of A28G U43A U54C U74A, 1.14; in that of A28G C59A G70A, 0.13.
For the variant A28G A45G A47G U67G, the self-cleavage is 0.07.
In the case of A28G G52A G63U it was 0.32; in that of A28G U60C G61A, 0.37.
In the case of A28G U49C U72C it was 0.14; in that of A28C A45G A56G, 0.42; in that of A28G G53C A77G C81U, 0.84.
In the case of A28G U43C G52C it was 0.37.
As to A28G U41C U69C, the self-cleavage worked out at 0.14.
As for A28G A45G U80C, the figure is 0.58.
As for A28G U51A U66A U78C, the figure is 0.12; as for A28G U72G U78A, 0.39.
On to A28G U41G U43C A45G A75U, for which the self-cleavage was 0.05.
In the case of C27U U72C U76C it was 0.16; in that of A28G U49C U51C U72C, 0.48.
On to C27U U54C U67A, for which the self-cleavage is 0.13.
In the case of A28G A35C A45G U60C it was 0.42; in that of A28G U41C U54C C62A U66C, 0.15.
As for A28G U69C U80A, the figure is 0.29; as for A28G A47G A77U, 0.78.
With A28G G30A C38A U48C U74C, the self-cleavage came out at 0.18.
As for A28G U31C A57G, the self-cleavage came to 0.39.
As for A28G G33A U66C, the figure is 0.52; as for A28G C40U U41C G55A C81U, 0.44; as for A28G A35G U72C, 1.34.
Turning to C27U A56U U74C, the self-cleavage was found to be 0.12.
In the case of A28G U60G U80C it was 0.16; in that of A28G G30A G33U A45G U48C U54C U72C, 0.08.
In the case of C27U U54A A75G it was 0.19; in that of A28C U43A U60C, 0.22; in that of A28C U43C U69A, 0.1.
On to A28C A45G U60C U66G, for which the self-cleavage was 0.35.
In the case of A28G U41C G42A U69C it was 0.12; in that of A28G A47U U72C, 0.29; in that of A28G C29G A57C, 0.24.
As for A28G G33C U67C U78C, the figure is 0.09; as for A28G A56U C62G, 0.07; as for A28G C32A A35G U78C, 0.21.
Regarding A28G U76A U80A, the self-cleavage worked out at 0.86.
Regarding A28C A45U A56G A75G, the self-cleavage is 0.16.
As for A28G C32A C38G A47G U48C A56G C81U, the figure is 0.21; as for A28G U60C U69A, 0.17; as for A28G U43C G63A, 0.19.
As for A28G U41C U66C, the figure is 0.2; as for A28G U43C U60A U66C U78C, 0.38; as for A28G G33U A35U U41C A64G, 0.06.
As for A28G G30A U78C, the self-cleavage came to 0.12.
In the case of A28G A35U A57U it was 0.12; in that of A28G G52A U54C U74C U78C, 1.06.
In the case of A28C U31C U67A U78C it was 0.1; in that of C27U U49A A57G G63A, 0.08; in that of A28G U41A U54C U58C U60A U72A, 0.08.
With A28G G33C U80C, the self-cleavage was determined as 0.22.
In the case of A28G A64G U67A U78C it was 0.08; in that of A28G A47U A57G A64G U69C, 0.05.
For A28U A35G U41C U49A, the self-cleavage was 0.93.
With A28G U48C A56U, the self-cleavage was 0.12.
As for A28C U43A A65G, the figure is 0.35; as for A28G U41A U60C, 0.08; as for A28G G33U A57G U76C A77G, 0.13.
In the case of A28G G42A A45U U48A U67C it was 0.04.
In the case of A28C A35U G63A it was 0.2.
Turning to A28G U60G U69A, the self-cleavage is 0.14.
As for A28G C37U U74C, the figure is 0.76.
Regarding A28G A35U U54C U60C U72A, the self-cleavage amounted to 0.15.
In the case of A28G A35U U60G A64G C81U it was 0.1.
Regarding A28G C37U A65C, the self-cleavage came out at 0.05.
As for C27U C39U A45C, the figure is 0.2; as for A28G U43G U58C, 0.4; as for A28G A45G U72G U74A U76C, 0.22.
A28G C40U G53C C68U U78G: the self-cleavage is 0.16.
In the case of A28G U51C G53A U72A it was 0.41; in that of A28G A47G G61A C71G U74A, 0.16; in that of A28G U60C A64G, 0.38.
As for A28G A35U G53A, the figure is 0.21; as for A28G U74C C79U U80G, 0.98; as for A28G U41A U60A U78A, 0.15.
In the case of A28G U51C U60C U67C A77G it was 0.08; in that of A28G A56G A64U U76A, 0.12.
As for A28G A45G A56G, the self-cleavage came to 0.18.
As for A28G U41C U66C U69C U78C, the figure is 0.12; as for A28G U54A G61A A65G U69A G70A U72C, 0.12; as for A28G U31C C37A, 0.1.
On to A28G U48A U49C, for which the self-cleavage was found to be 0.15.
As for A28G U41G U43A U54A A64G, the figure is 0.08; as for A28G U60C U78G, 0.18.
In the case of A28G U60C U78C it was 0.11; in that of A28G C38U U51C G52U U54C, 0.11; in that of C27U G52C U74C, 0.3.
In the case of A28G A45U U49A C71A it was 0.15; in that of A28G U31A C38U A56U, 0.19.
Consider A28G U48A A77U, for which the self-cleavage came out at 0.18.
In the case of A28G C40U U54A A57G it was 0.31.
In the case of A28G U51A U60C G63U it was 0.3; in that of A28G U43C U48A U60G, 0.03.
In the case of A28C U31C G33A U49C it was 0.1; in that of A28G U67A U78C, 0.21.
In the case of A28G U41A C50A, the self-cleavage was 0.18.
With C27U U54C U60C, the self-cleavage stood at 0.41.
In the case of A28G A64G U67C U78C it was 0.12.
Turning to A28G A47G U51A, the self-cleavage was found to be 0.58.
Take A28G G53A A64C U67C: the self-cleavage is 0.11.
As for A28G C32U U49C U69A, the figure is 0.04; as for C27U U54A A56G U78C, 0.12.
In the case of A28G U41A G55A, the self-cleavage is 0.06.
As for A28G U72C U76C, the figure is 0.99.
With A28G A35U C38U A47G C59G, the self-cleavage was found to be 0.07.
As for A28G U31A A45G A56G A65G U72C, the figure is 0.04.
In the case of A28G U43G G46A it was 0.07; in that of A28G G52C A56G U69C U80C, 0.19; in that of A28G U31G U60C, 0.19.
As for A28G A56G U67C C79U, the figure is 0.04.
As for A28G U31G G70A, the self-cleavage came out at 0.3.
Turning to A28G U49A U54G U58C, the self-cleavage is 0.2.
Regarding A28G A57U A77G, the self-cleavage turned out to be 0.2.
As for A28G G46U A47G A57G U78C, the figure is 0.13.
As for A28G U41C U60A C62U, the figure is 0.06; as for A28G C38G U48C U76C, 0.04.
As for A28G A35U U78C, the figure is 0.24; as for A28G C38U A45U U49A, 0.06; as for A28G C32U U66A, 0.12.
As to C27U A56G C62G A64G, the self-cleavage is 0.12.
Regarding A28G U66A C71A, the self-cleavage was found to be 0.15.
In the case of A28G A75G U78C, the self-cleavage is 0.19.
As to C27U A47U A56U A57G, the self-cleavage came out at 0.08.
In the case of A28G A35G U41C it was 0.63.
In the case of A28G U43C U49C it was 0.29.
As for A28G G36A U41A U43C U78A, the figure is 0.2; as for A28G A35G U69G, 0.7; as for A28G U54C U58C A65G U74G, 0.17.
A28G C32U U48C U51A U60C U67C C79U: the self-cleavage turned out to be 0.03.
In the case of A28G U48C U51G G52A G53A it was 0.19; in that of A28C G30C A56G A65G U74A U78C, 0.06.
In the case of A28C U49A U54C U74C it was 0.54; in that of A28G G42A U72C, 0.18; in that of A28G C37G A64U, 0.21.
For A28G G30U A45U C50A U60A A64C, the self-cleavage is 0.05.
As for A28G G46A U54C, the figure is 0.08; as for A28G C39G U49C U58A U66C G70A, 0.06.
In the case of A28U A35G U41A U43C U80A it was 0.12.
As for A28G A45G U48C U51G A56G U66C, the figure is 0.16.
On to A28C A47G U51A U78C, for which the self-cleavage worked out at 0.25.
For A28G U31A U49A U54A, the self-cleavage was found to be 0.14.
In the case of A28G U66C U78A it was 0.18; in that of A28G C40U G53C A77C U78G, 0.19; in that of A28G G52U A64G, 0.54.
As for A28G U41C C59A, the figure is 0.12; as for A28G U41C C59G, 0.21.
